From PubChem BioAssay AID1346428 (National Center for Advancing Translational Sciences (NCATS), 2018)
Among all 48,000 compounds or so, about 1,200 (2.5%) were called active. About 2% were inconclusive and are not listed.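 The calls were made as follows: active = activation of at least 60% and not above a set upper limit (about 1 call in 100 departs from these limits); inconclusive = activation of 40% to 60%, or above that upper limit; inactive = activation under 40%.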 Some of the results follow.

Target: Probable G-protein coupled receptor 32 (Homo sapiens) (UniProt O75388)
Chain of UniProt O75388 (O75388 whole entry, looked up): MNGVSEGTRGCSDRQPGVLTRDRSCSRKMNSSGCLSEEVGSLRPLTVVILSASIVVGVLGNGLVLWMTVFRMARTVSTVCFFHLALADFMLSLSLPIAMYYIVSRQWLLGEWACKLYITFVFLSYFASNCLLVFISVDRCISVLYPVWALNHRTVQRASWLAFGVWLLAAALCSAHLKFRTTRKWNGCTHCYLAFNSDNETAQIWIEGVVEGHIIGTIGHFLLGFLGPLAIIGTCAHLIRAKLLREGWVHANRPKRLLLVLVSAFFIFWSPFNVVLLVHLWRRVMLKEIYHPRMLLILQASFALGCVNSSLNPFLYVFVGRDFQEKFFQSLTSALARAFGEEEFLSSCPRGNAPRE
Assay: qHTS for Agonists of Human Resolvin D1 Receptor DRV1
Conditions: CHO-K1 GPR32 beta-arrestin PathHunter luminescence, 90 min; at 76.9 µM; stronger effect = higher value; zero percent set by DMSO-only wells
How it was run: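 Using DMSO wells as EC0, agonist-induced signal was taken as chemiluminescence from beta-Gal reconstituted upon beta-arrestin recruitment to GPR32 in CHO-K1 cells after 90 min compound treatment.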

SMILES | activation
CCc1ccc(NC(=O)Cn2ccn(Cc3ccccc3OC)c(=O)c2=O)cc1 | inactive: -14.2%
O=C(O)c1ccccc1NCCc1ccccc1 | inactive: -34.4%
COc1cccc(-c2ccc3c(N)c(C(=O)c4ccc(Br)cc4)sc3n2)c1 | inactive: -8.81%
O=C(Cc1ccc(Cl)cc1)Nc1nnc2n1CCS2 | inactive: -11.4%
COc1ccc(C)cc1NC(=O)CCc1c(C)nn(-c2ccc(N3CCOCC3)nn2)c1C | inactive: -7.98%
CCn1cc(S(=O)(=O)c2cccc(Cl)c2)c(=O)c2cc(F)c(N3CCC(C)CC3)cc21 | inactive: -5.58%
Cc1ccc(NC(=O)c2c(C)oc3ncnc(N4CCCCC4)c23)cc1Cl | inactive: 3.98%
Cc1ccc(-n2nc(C)c3c(C)cc(=O)n(CC(=O)N4CCCc5ccccc54)c32)cc1 | inactive: 16.2%
O=C(COCc1cc(-c2cccs2)on1)NCc1ccc(Cl)cc1 | inactive: -0.376%
COc1ccc(NC(=O)C(=O)NCC2(c3ccc(OC)c(OC)c3)CCCC2)cc1 | inactive: -1.07%
Cc1cc(C)c(NS(=O)(=O)c2ccc(-c3cnc(C4CC4)o3)cc2)c(C)c1 | inactive: 22.2%
COc1cccc(CNC(=O)Cc2csc3ccccc23)c1OC | inactive: -12.2%
CCCOC(=O)c1c(NC(=O)C2c3ccccc3Oc3ccccc32)sc2c1CCCC2 | inactive: -5.04%
COc1cccc(OCc2nc3ccccc3n2Cc2ccccc2C)c1 | inactive: -17.7%
COc1ccc(NC(=O)CCCSc2nc(-c3ccco3)cc(C(F)(F)F)n2)c(OC)c1 | inactive: -20.7%
COc1cc(NC(=O)Cn2nnc(-c3ccc(C(F)(F)F)cc3)n2)c(C(=O)O)cc1OC | inactive: 0.083%
CCOc1ccc(N(CC)C(=O)C2CCN(S(=O)(=O)c3cccc4nonc34)CC2)cc1 | inactive: 3.15%
COc1ccc(CCC(=O)NC2CC(=O)N(c3cccc(F)c3)C2)cc1 (centres undefined) | inactive: -14.2%
O=C(Cn1c(=O)oc2cc(S(=O)(=O)NCc3ccccc3)ccc21)Nc1ccc(F)c(Cl)c1 | inactive: 21%
CCC(=O)n1nc(-c2cccnc2)nc1NCc1ccc(F)cc1 | inactive: -7.58%
Cc1ccc(CN2CCSc3ccc(C(=O)NCCc4ccccc4)cc32)cc1 | inactive: -21.2%

SMILES | activation
COc1ccc(Cl)cc1NC(=O)C1CCN(c2nnc(C)c3c(C)n(-c4ccccc4)nc23)CC1 | inactive: -4.15%
CCCCOc1ccc(C(C)NC(=O)c2cccc(Nc3nc4ccccc4n4nnnc34)c2)cc1 (centres undefined) | inactive: 23.8%
CCOc1ccc(CCNC(=O)CSc2n[nH]c(-c3ccccc3)n2)cc1OCC | inactive: -6.08%
Cc1c(CC(=O)N2CCCCC2)c(=O)oc2c(C)c3occ(C(C)(C)C)c3cc12 | inactive: -14.8%
Oc1ccccc1C=NCc1ccccc1 | inactive: -22.1%
CN(C)C=NC(=O)c1cc2c(n(-c3ccccc3)c1=O)CC(C)(C)CC2=O | inactive: 3.46%
O=c1n(Cc2cccc(F)c2)c2ccccc2c2nc(-c3ccccc3)nn12 | inactive: 7.52%
CN(C)c1cc2c(cc1NS(=O)(=O)c1ccccc1)n(C)c(=O)n2C | inactive: -11.8%
COc1cccc(CSc2nc3n(n2)C(c2cccc(F)c2)C(C(=O)Nc2ccccc2C)=C(C)N3)c1 (centres undefined) | inactive: 13.7%
Cc1ccc(O)c(NC(=O)c2cc(-c3ccc4c(c3)OCO4)on2)c1 | inactive: -6.89%
COc1ccc(CN(C(=O)Nc2cccc(Cl)c2)c2ccccn2)cc1OC | inactive: -33.1%
Cc1cccc(N2CCN(C(=O)c3ccc(CS(=O)c4cccc(Cl)c4)o3)CC2)c1C (centres undefined) | inactive: -8.76%
Cc1ccc(-c2[nH]c3ccccc3c2SCCNC(=O)c2ccc(S(=O)(=O)N(C)C)cc2)cc1 | inactive: -22%
COc1ccc(CNC(=O)CCCN2C(=O)CSc3c2c(C)nn3-c2ccccc2)c(OC)c1 | inactive: 1.5%
COCCNC(=O)CCC(=O)N1Cc2cccc(OC)c2Oc2ncccc21 | inactive: -3.12%
CCSc1nnc2c(n1)OC(c1ccc(C)cc1)N(C(C)=O)c1ccccc1-2 (centres undefined) | inactive: -6.02%
COc1ccc(Cl)cc1NC(=O)CCS(=O)(=O)c1cccc2nonc12 | inactive: -19.4%
Cc1ccc(NC(=O)C(=O)NCC(c2cccnc2)N2CCOCC2)cc1Cl (centres undefined) | inactive: 24.2%
Cc1coc2c(C)c3oc(=O)c(CC(=O)NCCc4ccc(Cl)cc4)c(C)c3cc12 | inactive: -25.3%
Cc1c(NC(=O)c2cc(=O)c3ccccc3o2)c(=O)n(-c2ccccc2)n1C | inactive: -17.9%
COc1ccc(NC(=O)C2CCCN(S(=O)(=O)c3ccc4c(c3)oc(=O)n4C)C2)c(OC)c1 (centres undefined) | inactive: -0.112%

SMILES | activation
Cc1cccc(CSc2nc(-c3cccs3)ccc2C#N)c1 | inactive: -7.59%
C=CCc1c(C)nc2nc(SCC(=O)Nc3ccc(C)c(C)c3)nn2c1C | inactive: -13.5%
COCCCNC(=O)c1ccc(-n2c(-c3ccccc3)cc3c2CCC(C)C3)cc1 (centres undefined) | inactive: -36.6%
COc1cccc(N2CCN(C(=O)c3cccn3-c3nnc(N4CCCC4)s3)CC2)c1 | inactive: 2.78%
CN1CCC2(CCN3CCc4c(oc5ccccc45)C3C2)N(C)C1=O (centres undefined) | inactive: -8.2%
CCCCOc1ccc(S(=O)(=O)Nc2ccc(-c3ccc(N4CCC(C)CC4)nn3)cc2)cc1 | inactive: -10.3%
COc1ccc(CCN2C(=O)c3oc4cc(C)cc(C)c4c(=O)c3C2c2ccccc2F)cc1OC (centres undefined) | inactive: -1.33%
COc1ccc(S(=O)(=O)Nc2ccc(-c3cn4ccsc4n3)cc2)cc1C | inactive: -5.45%
COc1cccc(-c2nnc(SCC(=O)NC3CCCCC3)o2)c1 | inactive: 0.0986%
O=C(O)COc1nn(Cc2ccccc2)c2ccccc12 | inactive: -6.04%
CCCn1c(=O)c2sccc2n2c(CCCC(=O)Nc3ccc(Oc4ccc(Cl)cc4)cc3)nnc12 | inactive: -8.97%
Cc1ccc(NC(=O)c2ccc(CN3C(=O)CCn4nc(C)cc43)cc2)c(Cl)c1 | inactive: 40%
CC(=O)c1ccc(NS(=O)(=O)c2ccc(-c3cc(C)no3)s2)cc1 | inactive: -10.4%
CCOc1ccc(CCNC(=O)C2CCN(C(=O)c3cc4sccc4n3CC)CC2)cc1OCC | inactive: -1.76%
O=C(Nc1ccccc1C(F)(F)F)c1ccc2oc(=O)c(S(=O)(=O)c3ccc(F)cc3)cc2c1 | inactive: 5.98%
Cn1cc(C(=O)OCC2CCN(CCNS(C)(=O)=O)CC2)c2ccccc21 | inactive: 6.08%
COc1ccc(NC(=O)c2c(NC(=O)COc3ccccc3)sc3c2CCC(C)C3)cc1 (centres undefined) | inactive: 0.795%
O=C(NCCC1=CCCCC1)c1ccc2c(=O)n3nc(Nc4ccccc4)sc3nc2c1 | inactive: -13.7%
Cc1ccc(NC(=O)CSc2nnc3[nH]c(=O)cc(-c4ccccc4)n23)cc1Cl | inactive: -9.48%
COCCCNC(=O)c1cn(CCOC)c(=O)c2c1c1ccccc1n2C | inactive: 1.87%
Cc1ccccc1CNC(=O)CN1C(=O)CSc2ccc(S(=O)(=O)N(C)C)cc21 | inactive: 8.98%

SMILES | activation
COc1ccc(-c2noc(CCC(=O)Nc3ccc(C(F)(F)F)cc3)n2)cc1 | inactive: 13.4%
CC(=O)c1ccc(N2CCN(c3ncnc4c3nc3n4CCCC3)CC2)cc1 | inactive: -5.93%
Cc1ccc(CSc2oc(-c3cccs3)nc2S(=O)(=O)c2ccccc2)cc1 | inactive: -9.87%
COc1ccccc1N1CCN(c2ncc3c(n2)CCN(Cc2ccccc2F)C3)CC1 | inactive: -2.61%
COc1ccc(CCNC(=O)Cc2c(C)c3c(cc(C)c4c(C)c(C)oc43)oc2=O)cc1 | inactive: -7.84%
C#C[C@]1(O)CC[C@H]2[C@@H]3[C@H](C)CC4=C(CCC(=O)C4)[C@H]3CC[C@@]21C | active: 98.6%
Cc1c(NC(=O)c2cc(-c3cccc(O)c3)on2)c(=O)n(-c2ccccc2)n1C | inactive: 7.8%
Cc1ccc2ncc(C(=O)N3CCN(c4ccccc4F)CC3)c(=O)n2c1 | inactive: -0.506%
CCOC(=O)N1CCc2c(sc3c2c(=O)n(Cc2ccccc2)c(=O)n3Cc2ccccc2Cl)C1 | inactive: -4.06%
CCc1ccccc1NC(=O)N1CCc2c([nH]c3ccccc23)C1c1ccc(C)cc1 (centres undefined) | inactive: -31.3%
COc1ccc(CCNC(=O)c2cnn(-c3ccc(F)cc3)c2C2CCN(C(=O)OC(C)(C)C)CC2)c(OC)c1 | inactive: -17.3%
Cc1ccc(S(=O)(=O)N(CC(=O)NCCc2ccc(Cl)cc2)c2ccccc2C)cc1 | inactive: 2.47%
CCc1ccc(OCC(=O)N(Cc2ccc(C)o2)C2CCS(=O)(=O)C2)cc1 (centres undefined) | inactive: -28.1%
COc1cccc(NC(=O)C2CCN(c3nnc(C)c4c(C)n(-c5ccccc5)nc34)CC2)c1 | inactive: -0.441%
Cc1ccc(OCC(=O)Nc2nc(-c3ccc(Br)cc3)ns2)cc1C | inactive: -8.07%
COc1ccc(CNc2nc3ccccc3c3nc(-c4ccccc4)nn23)cc1 | inactive: -9.05%
CC(=O)c1ccc(NC(=O)c2nc(-c3ccc(C)cc3)n3c2CCCCC3)cc1 | inactive: -4.99%
Cc1ccccc1OCC(=O)Nc1ccc2nc(SCc3ccccc3)sc2c1 | inactive: 9.22%
COc1ccc(-c2ccc(NS(=O)(=O)c3cccc(C)c3)cc2)nn1 | inactive: 2.47%
COc1ccc(OCC(=O)NC2CC(=O)N(c3ccc4c(c3)OCCO4)C2)cc1 (centres undefined) | inactive: -15.7%
CC(=O)OCC(=O)[C@@]1(O)CC[C@H]2[C@@H]3CCC4=CC(=O)C=C[C@]4(C)[C@@]3(F)[C@@H](O)C[C@@]21C | inactive: -4.96%
